The other results are listed elsewhere or left out. At the low end of the ranking the order means little.

The test system of the assay is T1, GST-NbGlk1(82-244).
T1 sequence: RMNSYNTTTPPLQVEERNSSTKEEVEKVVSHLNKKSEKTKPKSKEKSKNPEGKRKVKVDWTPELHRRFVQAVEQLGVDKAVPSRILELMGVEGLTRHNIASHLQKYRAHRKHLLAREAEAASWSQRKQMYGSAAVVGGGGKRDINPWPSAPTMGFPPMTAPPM
The experiment in a line: protein-binding microarray.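 Further: rank-based score ranging −0.5 to +0.5 with E above 0.45 taken as significant binding.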 To be noted: NbGlk1 is a Golden2-like transcription factor of Nicotiana benthamiana; high values mean tight binding; most listed sequences are background and not binding sites; double strand, one strand shown.
ATCGTGCG had a binding signal of 0.234 E-score.
Then AGCTACTG, with -0.136 E-score; and AACATGCG, with -0.0932 E-score; and AGATGCGG, with 0.0273 E-score.
The figure for AGCGAGGA is -0.0427 E-score.
Regarding ATGACCTG, the binding signal was -0.169 E-score.
In the case of ATCGGAGA, the binding signal turned out to be 0.249 E-score.
The figure for CACATTGA is -0.0147 E-score.
Then ACCAGAAG, with -0.253 E-score; and ATAATTGA, with 0.0587 E-score.
Then ATAATAAA, with 0.187 E-score; and CACAATCA, with 0.27 E-score.
In the case of ATCATCCA, the binding signal was 0.171 E-score.
The figure for ACGGCAGG is -0.243 E-score; for AGAGATTA it is 0.298 E-score.
In the case of AGATCCCC, the binding signal is 0.378 E-score.
Then CAAGTCTG, with -0.238 E-score.
Sequence AGAAGGCT had a binding signal of -0.294 E-score.
As to AAAAAATT, the binding signal came out at 0.204 E-score.
The figure for AATTACCA is 0.152 E-score; for ACGATCCC it is 0.156 E-score.
Then ACTTACAC, with 0.0281 E-score; and ACGCAGCG, with -0.096 E-score; and AGAAATCT, with 0.465 E-score.
Regarding ACTTCAGA, the binding signal came to 0.0253 E-score.
The figure for ATTACACC is 0.334 E-score; for AACCCGTA it is 0.00606 E-score; for CAACAACC it is -0.17 E-score.
Then AGGCCACT, with -0.264 E-score; and CAAAATGC, with -0.0674 E-score; and ATCACGAT, with 0.29 E-score.
In turn, ACGCCGCA displayed a binding signal of -0.208 E-score.
Then ATAGGAAC, with -0.08 E-score; and AACGGACG, with -0.177 E-score.
As for AGAACGGG, the binding signal was -0.0636 E-score.
Sequence ATAGTGAA yielded a binding signal of 0.0599 E-score.
On to ACACGGGA, for which the binding signal was 0.0384 E-score.
The figure for ACTATCCA is 0.145 E-score; for CAGCCAGG it is -0.174 E-score.
The sequence ATCCGTAC came in with a binding signal of 0.226 E-score.
Then AATGTCGT, with -0.0573 E-score; and AACTTACG, with 0.0976 E-score.
Consider ACTATTCG, for which the binding signal came to 0.0591 E-score.
Then AGGATCGC, with 0.357 E-score; and AAACGCCT, with -0.113 E-score; and AAGTGACT, with -0.192 E-score.
ATGGCAAA had a binding signal of 0.0695 E-score.
For the sequence ATCGAGTC, the binding signal was -0.0798 E-score.
As to ACCGGAAC, the binding signal was -0.175 E-score.
The figure for ACAGGTGC is -0.201 E-score; for CACTAGTC it is -0.128 E-score; for CAGATTGA it is 0.0826 E-score.
For the sequence AACCTGAT, the binding signal was determined as 0.133 E-score.
ACTTCTCT: the binding signal was found to be 0.0596 E-score.
The figure for ATATGTAC is 0.12 E-score; for ACTTATTC it is -0.0512 E-score.
The figure for AAAATCCA is 0.454 E-score; for ATACGCCC it is 0.0464 E-score.
The figure for ACAGAGCA is -0.112 E-score.
Take ACTAACAC: the binding signal is -0.192 E-score.
The sequence AGCTAACT had a binding signal of -0.214 E-score.
The figure for ACTGGCTA is -0.211 E-score; for AACTCTGA it is 0.0132 E-score.
The figure for AGCGAATG is 0.0432 E-score; for ACCCTCGA it is -0.248 E-score; for ATCTTAGC it is 0.246 E-score.
Then CACTTCTA, with -0.167 E-score.
CACGCGAG displayed a binding signal of -0.0324 E-score.
For the sequence AAGTAACA, the binding signal was -0.0919 E-score.
As to ACAGCTGG, the binding signal was -0.158 E-score.
Then AATGTAAA, with 0.146 E-score; and CACGCGCG, with 0.0351 E-score.
In turn, AACCCGTG returned a binding signal of -0.133 E-score.
As to AACCTGGG, the binding signal is -0.233 E-score.
Sequence ACACGTTC gave a binding signal of -0.133 E-score.
The figure for ATCATGCG is 0.000838 E-score.
Then AATGTCGC, with -0.0312 E-score; and CACCGGGG, with -0.127 E-score; and CAGATTGG, with 0.0389 E-score.
The figure for AGTCCCGG is -0.317 E-score; for CACTAGTG it is 0.00884 E-score.
The sequence ACGGGTCG returned a binding signal of -0.285 E-score.
The figure for AAACCTAA is -0.0986 E-score; for AACATCGC it is 0.063 E-score.
Then AGCCCTTG, with -0.211 E-score.
Then CACCTTCA, with -0.0871 E-score; and ACGCCTCT, with -0.264 E-score.
AAAGCTGG had a binding signal of -0.0227 E-score.
The figure for CACGATAC is 0.116 E-score; for ATTGACGA it is -0.0237 E-score; for AATCTCCC it is 0.387 E-score.
In turn, CAACGTTC registered a binding signal of -0.142 E-score.
Then ACCGGCGG, with -0.143 E-score.
Turning to ATTGTTTC, the binding signal turned out to be 0.0745 E-score.
